Measurements from patent publication US20220057408A1.

Each substance was assayed against HER2 (UniProt P04626) (assay: IHC on 2+ HER2+ breast cancer tissue; conjugate at 1 µg/mL detected with MsAntiV5 and HRP multimer/DAB).

IHC Intensity (subjective score of DAB signal strength) | Substance
1.75 | HER2/neu (4B5) antibody-V5 peptide conjugate H1K0
2.25 | HER2/neu (4B5) antibody-V5 peptide conjugate H2K2
2.25 | HER2/neu (4B5) antibody-V5 peptide conjugate H3K0
2.25 | HER2/neu (4B5) antibody-V5 peptide conjugate H4K4
